The text below walks through data of PubChem BioAssay AID360 (National Center for Advancing Translational Sciences (NCATS), 2006).

In all, about 48,000 compounds went through this assay and about 550 (1.1%) were called active. About 4% were inconclusive and are not listed. Rule as the data show it: active = potency below about 15 µM; inconclusive = mostly about 16 µM to 33 µM; inactive = weaker than that. The list shows a part of the results.
Potency is read from the fitted curve at half-maximal effect.

The target in the assay is Lysosomal acid glucosylceramidase (Homo sapiens) (UniProt P04062). As to the kind of experiment: Glucocerebrosidase.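 Also: the screen sought inhibitors.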 The conditions noted are these: purified enzyme, resorufin glucoside fluorescence (screen aimed at inhibitors), 20 min. In a few lines: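 Compounds titrated against 0.2 nM normal enzyme, 30 uM resorufin beta-D-glucopyranoside substrate, citrate/phosphate buffer with taurocholate and tween-20, pH 5.9. Reaction ran 20 min at room temperature; fluorescence (Ex 548/Em 600) gave AC50.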
Chain of UniProt P04062 (P04062 whole entry, looked up): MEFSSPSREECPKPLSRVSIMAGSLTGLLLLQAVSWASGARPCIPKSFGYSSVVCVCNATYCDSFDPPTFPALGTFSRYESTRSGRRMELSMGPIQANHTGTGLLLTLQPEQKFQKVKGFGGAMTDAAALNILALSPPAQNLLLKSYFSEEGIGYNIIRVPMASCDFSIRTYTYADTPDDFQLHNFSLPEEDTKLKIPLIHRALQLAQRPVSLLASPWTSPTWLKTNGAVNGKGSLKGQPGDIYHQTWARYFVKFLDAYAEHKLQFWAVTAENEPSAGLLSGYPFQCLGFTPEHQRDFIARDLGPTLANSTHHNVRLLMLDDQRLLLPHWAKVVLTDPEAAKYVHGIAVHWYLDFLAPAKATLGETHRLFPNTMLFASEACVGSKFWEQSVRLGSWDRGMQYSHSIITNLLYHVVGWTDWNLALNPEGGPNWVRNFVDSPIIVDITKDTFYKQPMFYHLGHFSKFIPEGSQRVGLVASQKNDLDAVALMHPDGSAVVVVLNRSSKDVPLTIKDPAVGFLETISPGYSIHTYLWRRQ
Turning to `COC(=O)c1cc(Oc2ccc(C(=O)OC)cc2N)cc(C(=O)OC)c1`, the Potency was inactive: > 76.9 µM.
Consider `O=C(O)CSC12CC3CC(C1)CC(C(=O)O)(C3)C2`, for which the Potency was inactive: > 76.9 µM.
Consider `Cc1ccc(S(=O)(=O)CCSc2nc(C)cc(C)c2C#N)cc1`, for which the Potency is inactive: > 76.9 µM.
As for `O=C(COc1ccc(S(=O)(=O)NC2CCCC2)cc1)N1CCCCCC1`, the figure is inactive: > 76.9 µM; as for `CN(C)CCCN1C(=O)C(O)=C(C(=O)c2cccs2)C1c1ccccn1` (stereo not drawn), inactive: > 76.9 µM.
As for `CS(=O)(=O)N(CC(=O)O)c1cccc(Cl)c1`, the figure is inactive: > 76.9 µM; as for `COCCN1Cc2cccc(C(=O)Nc3cc(OC)ccc3OC)c2C1=O`, inactive: > 76.9 µM.
To `O=c1cc(Cn2ccnc2)c2cc3c(cc2o1)CCC3` belongs “inactive”; to `COc1ccc2cc3cc(C(=O)NCC4COc5ccccc5O4)oc3nc2c1` (stereo not drawn), inactive: > 76.9 µM; to `O=C(NCCCCNC(=O)c1cccnc1)c1cccnc1`, inactive: > 76.9 µM.
Turning to `Cc1ccc2nc3c(cc(C(N)=S)c(=N)n3CCCOC(C)C)c(=O)n2c1`, the Potency was inactive: > 76.9 µM.
As for `COCCCN1C(=O)C(=O)/C(=C(/O)c2ccc(OC(C)C)cc2)C1c1cccnc1` (stereo not drawn), the figure is inactive: > 76.9 µM; as for `CCn1c(SCC(=O)Nc2nc3c(s2)CCCC3)nc2c1c(=O)n(C)c(=O)n2C`, inactive: > 76.9 µM.
As to `O=C(CN1C(=O)NC2(CCCCC2)C1=O)Nc1ccccc1Cl`, the Potency was inactive: > 76.9 µM.
On to `CCN(CC)C(=O)Oc1ccc2c(=O)c(-c3ccc(OC)cc3)c(C)oc2c1`, for which the Potency was inactive: > 76.9 µM.
In the case of `Cc1cccn2c(=O)c3cc(C#N)c(=O)n(CCCN4CCOCC4)c3nc12`, the Potency was inactive: > 76.9 µM.
As to `Cc1cc(C)c2c(CN3CCN(Cc4ccc5c(c4)OCO5)CC3)cc(=O)oc2c1C`, the Potency was inactive: > 76.9 µM.
As for `CCOC(=O)Cc1csc(NC(=O)CS(=O)(=O)Cc2ccccc2)n1`, the figure is inactive: > 76.9 µM.
For `O=C(CCc1nc(-c2ccccc2F)no1)NCCN1CCc2ccccc2C1`, the Potency is inactive: > 76.9 µM.
For `Cc1nn2c3c(cnc2c1-c1ccccc1)C(=O)CCC3`, the Potency is inactive: > 76.9 µM.
As for `O=C(NCCCN1CCCCCC1)c1ccc(N2CCCC2=O)cc1`, the figure is inactive: > 76.9 µM; as for `CC(C)(C)c1ccc(C(=O)N2CCC(C(=O)NCC3CCCO3)CC2)cc1` (stereo not drawn), inactive: > 76.9 µM; as for `CC(SC1CCCC1)C(=O)NC(C)(C#N)C(C)C` (stereo not drawn), inactive: > 76.9 µM.
In the case of `CC(=O)NCCn1c(SCC(=O)NCCC2=CCCCC2)nc2ccccc2c1=O`, the Potency is inactive: > 76.9 µM.
Take `Nc1cc(C(=O)N2CCCC2)cc(C(=O)N2CCCC2)c1`: the Potency is inactive: > 76.9 µM.
To `O=C(NCc1cccnc1)c1cccc(NC(=O)c2ccco2)c1` belongs inactive: > 76.9 µM; to `c1ccc2c(c1)CCCC2NC1=NCCC1` (stereo not drawn), inactive: > 76.9 µM.
To `O=C(O)c1ccc(NC(=O)C2CCCCC2)cc1` belongs inactive: > 76.9 µM.
On to `Cc1ccc(-n2c(C)nc3c(cnn3-c3ccc(F)cc3)c2=O)cc1C`, for which the Potency is inactive: > 76.9 µM.
For `CC1C(=O)C(C)C(c2cccs2)NC1c1cccs1` (stereo not drawn), the Potency is inactive: > 76.9 µM.
Consider `CCC(NS(=O)(=O)c1ccc(C)cc1)C(=O)O` (stereo not drawn), for which the Potency was inactive: > 76.9 µM.
Turning to `Oc1ccc(-c2csc(NCc3ccco3)n2)cc1`, the Potency result was “inactive”.
As for `CCCCn1c(SCC(=O)Nc2nnc(CC)s2)nc2ccccc2c1=O`, the figure is inactive: > 76.9 µM.
To `CC(C)Nc1nc(C#N)nc(NC(C)C)n1` belongs inactive: > 76.9 µM; to `C=CCN1C(=O)C2C(C(=O)NC)C3C=CC2(O3)C1C(=O)NCc1ccc(OC)cc1` (stereo not drawn), inactive: > 76.9 µM; to `COc1ccc(CCC(=O)N2CCc3ccccc32)cc1`, inactive: > 76.9 µM.
Consider `CCOC(=O)c1[nH]c(C)c(/C=N/O)c1C`, for which the Potency is inactive: > 76.9 µM.
As for `c1ccc(OCc2nn3c(-c4ccncc4)nnc3s2)cc1`, the figure is inactive: > 76.9 µM.
On to `O=c1c2[nH]c3ccccc3c2ncn1CCCn1ccnc1`, for which the Potency was inactive: > 76.9 µM.
On to `O=C1Nc2cc(Cl)ccc2C1(N1CCNCC1)C(F)(F)F` (stereo not drawn), for which the Potency is inactive: > 76.9 µM.
As for `COc1ccc2[nH]c(=O)c(CN(Cc3ccco3)C(=O)c3ccccc3)cc2c1`, the figure is inactive: > 76.9 µM; as for `CCOC(=O)c1[nH]c(C)c(C(=O)N(C)C)c1C`, inactive: > 76.9 µM; as for `O=C(CSc1nnc(-c2ccc(S(=O)(=O)N3CCCC3)cc2)n1CC1CCCO1)NC1CC1` (stereo not drawn), inactive: > 76.9 µM.
As for `c1ccc(-c2cc(-c3nn4c(-c5ccco5)nnc4s3)c3ccccc3n2)cc1`, the figure is inactive: > 76.9 µM; as for `COc1ccccc1-c1nnc(SCc2nc3ccccc3[nH]2)n1C`, inactive: > 76.9 µM; as for `CC1=[N+]([O-])C(C)(C)C(C)N(O)C1=O` (stereo not drawn), inactive: > 76.9 µM.
To `Cn1ccnc1SCC(=O)N(C1CCCCC1)C1CCCCC1` belongs inactive: > 76.9 µM; to `Cc1ccccc1NS(=O)(=O)c1cc(C(=O)N2CCCC2)ccc1C`, inactive: > 76.9 µM; to `CCOC(=O)c1cnn(-c2cc(C)c3cc(C)cc(C)c3n2)c1N`, inactive: > 76.9 µM.
For the compound `Cc1cn(-c2ccc(Br)cc2)[nH]c1=O`, the Potency was inactive: > 76.9 µM.
For `CC1CCCCC1N1CCN(C(=O)c2cccc(F)c2)CC1` (stereo not drawn), the Potency is inactive: > 76.9 µM.
As to `CC(C)(C)C1CCc2nc(NC(=O)Cc3cn4ccsc4n3)sc2C1` (stereo not drawn), the Potency is inactive: > 15.4 µM.
Regarding `CCn1c(SCCC#N)nnc1-c1ccncc1`, the Potency is inactive: > 76.9 µM.
For `O=C1CSC(c2ccccn2)N1c1ccccc1` (stereo not drawn), the Potency is inactive: > 76.9 µM.
`COc1cccc(C(=O)Nc2c3c(nn2-c2cccc(C)c2C)CS(=O)C3)c1OC` (stereo not drawn): the Potency was inactive: > 76.9 µM.
For `CC(C)Oc1ccc(C2C(C(=O)c3ccco3)=C(O)C(=O)N2CCCN(C)C)cc1` (stereo not drawn), the Potency is inactive: > 76.9 µM.
To `Cc1ccc(C)c(NC(=O)CSc2nnc(-c3ccccc3)n2N)c1` belongs inactive: > 76.9 µM.
To `Cc1ccc(S(=O)(=O)c2cc3c(=O)n4ccccc4nc3n(CC3CCCO3)c2=N)cc1` (stereo not drawn) belongs inactive: > 76.9 µM; to `COCCCN1C(=O)c2[nH]nc(-c3ccccc3O)c2C1c1cccc(Cl)c1` (stereo not drawn), inactive: > 76.9 µM.
To `O=C(O)CCC(=O)N(Cc1cccs1)Cc1cccs1` belongs inactive: > 76.9 µM; to `O=C(O)c1ccccc1-c1ccccc1C(=O)NCc1ccco1`, inactive: > 76.9 µM; to `Nc1ccc2c(c1)COc1ccccc1O2`, inactive: > 76.9 µM.
On to `c1ccc2c(c1)nc(-c1ccncc1)n1nnnc21`, for which the Potency is inactive: > 76.9 µM.
As for `O=C(CSc1nnc(-c2cccs2)o1)N1CCc2ccccc21`, the figure is inactive: > 76.9 µM.
As for `O=C(Nc1ccccc1N1CCOCC1)c1ccc2ccccc2n1`, the Potency was inactive: > 76.9 µM.
As for `COc1cc(C2C(C(=O)c3ccco3)=C(O)C(=O)N2CCc2ccccc2)ccc1O` (stereo not drawn), the figure is inactive: > 76.9 µM; as for `Cc1cccnc1NC(=O)c1c(O)c2cccc3c2n(c1=O)CCC3`, inactive: > 76.9 µM.
As for `COc1ccccc1NC(=O)CN1CCN(c2ccc(Cl)cc2)CC1`, the figure is inactive: > 76.9 µM.
To `NC(=O)c1oc2ccc(Cl)cc2c1N` belongs inactive: > 76.9 µM; to `CC(=O)Nc1ccc(S(=O)(=O)Nc2ccc(N3CCOCC3)cc2)cc1`, inactive: > 76.9 µM.
In the case of `Clc1ccc(OCc2nn3c(-c4ccncc4)nnc3s2)cc1`, the Potency was inactive: > 76.9 µM.
As for `Cc1ccc(N(C(=O)C2CCC(=O)N2)C2(C(=O)NC3CCCCC3)CCCCC2)cc1` (stereo not drawn), the figure is inactive: > 76.9 µM; as for `Cc1cc(=O)n2c3c(sc2n1)C(=O)N(Cc1ccccc1)C3=O`, inactive: > 76.9 µM; as for `COCCNC(=O)C(c1ccco1)N(Cc1ccc(OC)cc1)C(=O)Cn1nnc2ccccc21` (stereo not drawn), inactive: > 76.9 µM.
As for `O=S(=O)(N1CCCCC1)n1nnc2ccccc21`, the figure is inactive: > 76.9 µM; as for `CCCCc1cc(=O)oc2cc(C)cc(OCC(=O)O)c12`, inactive: > 76.9 µM.
As for `CCOC(=O)N1CCN(C(=O)c2ccc3nc4cc(Cl)ccc4c(=O)n3c2)CC1`, the figure is inactive: > 76.9 µM; as for `CC1CCC(C(=O)NC(C(=O)N2CCN(c3ccccn3)CC2)C(C)C)CC1` (stereo not drawn), inactive: > 76.9 µM; as for `CCOC(=O)CSc1nc2c(c(=O)n1-c1ccc(OCC)cc1)SCC2`, inactive: > 76.9 µM.
Regarding `COc1ccc(C(=O)NCc2c(CC(C)C)oc(C)c2C(=O)O)cc1`, the Potency is inactive: > 76.9 µM.
For `O=C(c1noc2c1CCCC2)N1CCN(C(c2ccccc2)c2ccccc2)CC1`, the Potency is inactive: > 76.9 µM.
As for `O=C1CCCc2nn(-c3ccccc3)c(-c3ccncc3)c21`, the figure is inactive: > 76.9 µM; as for `CC(C)n1cnc2cc(NCc3nc4ccccc4n3C)ccc21`, inactive: > 76.9 µM; as for `Cc1ccc2nc(NC(=O)CSc3nc4c(c(=O)n3C)SC(C)C4)sc2c1` (stereo not drawn), inactive: > 76.9 µM.
Turning to `Cc1ccc(S(=O)(=O)Nn2c(C)ccc2C)cc1`, the Potency result was “inactive”.
Regarding `CCNC(=O)CCc1nc(-c2ccc(C(C)(C)C)cc2)no1`, the Potency was inactive: > 76.9 µM.
As for `O=C(c1ccccc1)N(CCN1CCOCC1)C1(C(=O)Nc2ccccc2)CCCCC1`, the figure is inactive: > 76.9 µM; as for `CC(C)CCNC(=O)NC(=O)COc1ncnc2sccc12`, inactive: > 76.9 µM; as for `O=C(CC1CCCCC1)NCc1ccccn1`, inactive: > 76.9 µM.
Regarding `CN1CCN(c2ccc(Cl)cc2NC(=O)C2COc3ccccc3O2)CC1` (stereo not drawn), the Potency entry was “inactive”.
To `Cc1cc(C(C)(C)C)cc(S(=O)(=O)NCCO)c1C` belongs inactive: > 76.9 µM; to `CCOCCCNS(=O)(=O)c1ccc2c(c1)OCCO2`, inactive: > 76.9 µM.
Regarding `NS(=O)(=O)c1ccc(CCNC(=O)CCCC2=NS(=O)(=O)c3ccccc3N2)cc1`, the Potency was inactive: > 76.9 µM.
